{
  "source": "PubChem BioAssay AID488969",
  "about": "(Vanderbilt High Throughput Screening Facility, 2010)",
  "note": "In all, about 110,000 compounds were measured (“z-score”: median about -0.1, highest 2% from about 2 on). The list shows a part of the results. Activity calls are given as the source filed them.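 Rule for the calls: active = z-score in the third read window above 3 or below -3; inactive = the rest.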",
  "data": [
    {"biological_target": "Metabotropic glutamate receptor 8 (Rattus norvegicus) (UniProt P70579)", "sequence (P70579 whole entry, looked up)": "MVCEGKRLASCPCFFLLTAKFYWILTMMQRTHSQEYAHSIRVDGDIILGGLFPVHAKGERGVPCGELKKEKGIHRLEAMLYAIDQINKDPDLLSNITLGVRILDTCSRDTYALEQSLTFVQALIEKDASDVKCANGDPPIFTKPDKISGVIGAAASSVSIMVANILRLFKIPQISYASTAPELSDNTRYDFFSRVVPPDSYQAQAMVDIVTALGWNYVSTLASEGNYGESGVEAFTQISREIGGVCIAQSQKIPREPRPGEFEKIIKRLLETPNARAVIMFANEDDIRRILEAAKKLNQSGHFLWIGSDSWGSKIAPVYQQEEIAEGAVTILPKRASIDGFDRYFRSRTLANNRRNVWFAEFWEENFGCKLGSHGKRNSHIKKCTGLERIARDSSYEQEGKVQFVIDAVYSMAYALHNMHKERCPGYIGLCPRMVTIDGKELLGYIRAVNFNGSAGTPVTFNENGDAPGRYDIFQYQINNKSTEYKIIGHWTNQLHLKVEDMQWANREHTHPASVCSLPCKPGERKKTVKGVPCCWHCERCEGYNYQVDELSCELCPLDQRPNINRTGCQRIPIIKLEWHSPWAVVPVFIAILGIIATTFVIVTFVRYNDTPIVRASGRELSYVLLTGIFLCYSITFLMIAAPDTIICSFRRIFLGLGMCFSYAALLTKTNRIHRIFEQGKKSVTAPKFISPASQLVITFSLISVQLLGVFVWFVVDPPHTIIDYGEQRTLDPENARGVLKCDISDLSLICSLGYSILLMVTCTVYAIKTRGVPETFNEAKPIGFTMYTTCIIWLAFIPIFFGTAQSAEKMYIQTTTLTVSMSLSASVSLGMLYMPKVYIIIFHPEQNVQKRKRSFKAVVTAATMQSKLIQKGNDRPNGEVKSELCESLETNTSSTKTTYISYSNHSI", "assay": "mGluR8 Gi/Go-coupled signaling modulation – cell-based, rat, thallium flux, HTS, primary screen (AID 488969)", "conditions": "HEK293 rat mGluR8, GIRK (G protein-gated inwardly rectifying potassium channel) thallium flux, FluoZin2; at 10 µM; stronger effect = higher value; submaximal glutamate (EC20) added with thallium", "values": [
      {"smiles": "O=c1cc(N2CCN(c3ccccc3)CC2)[nH]c(=O)n1-c1ccccc1Cl", "z-score": -0.653},
      {"smiles": "NS(=O)(=O)c1ccc(CCNC(=O)CSc2ccc(Cl)cc2)cc1", "z-score": -0.509},
      {"smiles": "COc1cccc(-c2nc3ccccc3c(=O)n2NC(=O)c2cccnc2Cl)c1", "z-score": -0.295},
      {"smiles": "CC(C)NS(=O)(=O)c1ccc(NC(=O)Cc2cccs2)cc1", "z-score": -0.81},
      {"smiles": "Nc1nnc(SCC(=O)N2CCN(Cc3ccccc3)CC2)s1", "z-score": 0.349},
      {"smiles": "CCCC(=O)Nc1nnc(SCC(=O)Nc2ccc3c(c2)OCO3)s1", "z-score": 0.114},
      {"smiles": "O=C(N/N=C\\CCc1ccccc1)c1ccco1", "z-score": 0.322},
      {"smiles": "COc1ccc(-c2sc(NC(C)=O)nc2-c2ccccc2)cc1", "z-score": -0.156},
      {"smiles": "CN1CCC(Oc2ccccc2Sc2ccc(C(F)(F)F)cc2)CC1", "z-score": 0.595},
      {"smiles": "N#C/C(=C\\c1cccc2ccccc12)c1nn(-c2ccccc2)c(N)c1C#N", "z-score": -0.268},
      {"smiles": "Cc1[nH]c2ccccc2c1/C=N/Nc1nc(Nc2ccccc2)nc(N2CCOCC2)n1", "z-score": -0.457},
      {"smiles": "CCCC(C)C1C(C#N)=C(N)Oc2cc(C)oc(=O)c21", "note": "(stereo unspecified)", "z-score": -0.602},
      {"smiles": "CCOC(=O)N1CCN(C(=O)CSCC(=O)Nc2nc(-c3ccc(OC)cc3)cs2)CC1", "z-score": -0.184},
      {"smiles": "O=C(N/N=C/c1ccco1)c1cc(-c2cccs2)[nH]n1", "z-score": -1.21},
      {"smiles": "COc1ccccc1N(CC(=O)Nc1ccc2c(c1)OCCO2)S(C)(=O)=O", "z-score": 0.517},
      {"smiles": "NC(=O)CSc1nc2cc3c(cc2c(=O)n1CCCC(=O)NCc1ccc2c(c1)OCO2)OCO3", "z-score": 0.0633},
      {"smiles": "CCn1c(SCc2cccc(C(=O)O)c2)nnc1-c1ccccc1", "z-score": -0.651},
      {"smiles": "CCOC(=O)c1ccc(NC(=S)N2CCSC2c2c(F)cc(F)cc2F)cc1", "note": "(stereo unspecified)", "z-score": 0.137},
      {"smiles": "CCOc1nc(OCC)nc(-n2cc(-c3ccccc3)nn2)n1", "z-score": -0.118},
      {"smiles": "CCOC(=O)N1CCC(NC(=O)c2cc(C(=O)NCC(OC)OC)ccc2CO)CC1", "z-score": -0.143},
      {"smiles": "Cc1cc(C)nc(SCC(=O)NC2=NN=C(c3ccc(Br)cc3)CS2)n1", "z-score": -0.093},
      {"smiles": "Clc1ccc(/C=N/Nc2nnc(-c3ncc[nH]3)c3ccccc23)cc1", "z-score": -0.105},
      {"smiles": "Cc1nn2c(-n3ccnc3)c3c(nc2c1-c1ccccc1)CCC3", "z-score": 0.319},
      {"smiles": "CCOC(=O)Cc1csc(NC(=O)c2ccco2)n1", "z-score": 0.153},
      {"smiles": "c1cnc2ccc(C(c3nnnn3C3CCCCC3)N3CCN(C4CCCCC4)CC3)cc2c1", "note": "(stereo unspecified)", "z-score": 0.847},
      {"smiles": "COc1ccc(C2CCCN2C(=O)Nc2ccccc2)cc1OC", "note": "(stereo unspecified)", "z-score": -0.326},
      {"smiles": "Cc1ccc(C(=O)N2CCN(c3ccc(C(F)(F)F)cn3)CC2)cc1", "z-score": 0.0416},
      {"smiles": "CCN=c1scc(-c2cccs2)n1/N=C/c1cc(OC)ccc1O", "z-score": 2.02},
      {"smiles": "COc1ccc(OC)c(NC(=O)c2ccc(NC(C)=O)cc2)c1", "z-score": -0.453},
      {"smiles": "Cc1ccc(S(=O)(=O)C(CCC(=O)c2ccc(Cl)cc2)C(N)=O)cc1", "note": "(stereo unspecified)", "z-score": -0.0882},
      {"smiles": "O=CNCCCc1nc2ccccc2n1Cc1cccc2ccccc12", "z-score": -0.365},
      {"smiles": "CN(C(=O)c1ccccn1)c1nnc(-c2cnccn2)s1", "z-score": -0.729},
      {"smiles": "Cc1cc(SCC(=O)OCC(=O)NC(C)c2ccccc2)c(C)cc1Br", "note": "(stereo unspecified)", "z-score": 0.0118},
      {"smiles": "COC(=O)c1ccsc1NC(=O)CSc1nnnn1Cc1ccccc1", "z-score": -0.885},
      {"smiles": "O=C(Cn1cnc([N+](=O)[O-])c1)NCc1ccc(F)cc1", "z-score": -0.183},
      {"smiles": "CCN(CC)C(=O)/C(=C/c1ccc(F)cc1)NC(C)=O", "z-score": -0.104},
      {"smiles": "CCOc1cc2c3c(c1)C1(OCCO1)C(=O)N3C(C)(C)CC2C", "note": "(stereo unspecified)", "z-score": -0.0339},
      {"smiles": "COC(=O)C1=C(NC(=O)COc2ccc3ccccc3c2)CCS1", "z-score": 0.534},
      {"smiles": "CC(C)c1nc(NCCN2CCOCC2)c(C#N)c2c1COC(C)(C)C2", "z-score": -0.502},
      {"smiles": "CCn1c2ccccc2c2cc(/C=N/NC(=O)c3ccccc3)ccc21", "z-score": -0.25},
      {"smiles": "Cc1ccc(C(=O)NC2CCS(=O)(=O)C2)cc1S(=O)(=O)N1CCCCC1", "note": "(stereo unspecified)", "z-score": 0.0878},
      {"smiles": "c1ccc(OCCCn2nnc(-c3ccncc3)n2)cc1", "z-score": -0.166},
      {"smiles": "CCc1ccccc1NC(=O)CSc1nnc([C@@H](NC(=O)OC(C)(C)C)C(C)C)o1", "z-score": 0.0357},
      {"smiles": "CCOc1oc(-c2ccc(OC)cc2)nc1C(F)(F)F", "z-score": 0.0304},
      {"smiles": "O=c1/c(=C/c2ccco2)sc2n1CN(c1ccccc1)CN=2", "z-score": -0.194},
      {"smiles": "Cc1ccc(C)c(S(=O)(=O)n2cnc3ccccc32)c1", "z-score": 0.178},
      {"smiles": "Cn1c(=O)[nH]c(=O)c2c1nc(Br)n2CCCSc1nc2ccccc2o1", "z-score": -0.621},
      {"smiles": "Cc1ccc(N2C(=O)c3sc4nnc(C)c(=O)n4c3C2=O)cc1", "z-score": -0.285},
      {"smiles": "CCNc1nc(OC)nc(SCC(N)=O)n1", "z-score": 0.428},
      {"smiles": "CCOc1ccc(CN2CCCN(C)CC2)cc1", "z-score": -0.242},
      {"smiles": "COc1ccc(C2(CNC(=O)Cc3ccccc3)CCCC2)cc1OC", "z-score": -0.343},
      {"smiles": "CC(C)NC(=O)COC(=O)c1ccccc1Oc1ccccc1", "z-score": -0.163},
      {"smiles": "C=CCC(C(=O)OC)(C(=O)OC)c1ccc([N+](=O)[O-])cn1", "z-score": -0.167},
      {"smiles": "CCCCN(CC)C(=O)Cc1cn(C)c2ccccc12", "z-score": 0.0814},
      {"smiles": "CCOC(=O)c1[nH]c(C)c(C(=O)N2CCN(c3ccccc3)CC2)c1C", "z-score": 0.748},
      {"smiles": "CC(C)(C)c1nc(SCC(=O)Nc2ccc(N3CCOCC3)cc2)c2ccccc2n1", "z-score": 0.799},
      {"smiles": "N#Cc1c2c(nc(N)c1-c1ccccc1)CCCCC2", "z-score": -0.192},
      {"smiles": "Cc1cccc2sc(NC(=O)Cn3cccc3)nc12", "z-score": "active: 13.9"},
      {"smiles": "O=C(/C=C/c1ccc(Br)o1)NC(c1ccccc1)c1ccccc1", "z-score": -0.303},
      {"smiles": "c1ccc(N2CCN(c3nc(-c4cccs4)nc4ccccc34)CC2)cc1", "z-score": 1.64},
      {"smiles": "O=C1CC(c2ccco2)CC2=C1C=Nc1ccccc1N2", "note": "(stereo unspecified)", "z-score": -0.37},
      {"smiles": "Cc1ccc(C(C(=O)NCc2ccco2)N(C(=O)CNC(=O)c2cccs2)c2ccc(C)cc2)cc1", "note": "(stereo unspecified)", "z-score": -0.558},
      {"smiles": "CS(=O)(=O)N(CC(=O)N1CCN(c2ccc(F)cc2)CC1)C1CCCCC1", "z-score": 0.121},
      {"smiles": "Cc1ccc(O)c(C(=O)c2cnc3c(c2)COc2ccc(C)cc2-3)c1", "z-score": -0.126},
      {"smiles": "O=C(/C=C/c1ccco1)Nc1cccc(S(=O)(=O)N2CCOCC2)c1", "z-score": -0.375},
      {"smiles": "COc1ccc(-c2nnn(CC(=O)NC3CCCc4ccccc43)n2)cc1OC", "note": "(stereo unspecified)", "z-score": 0.303},
      {"smiles": "Cc1ccc(CNC(=O)c2ccc(OCC3CCCO3)cc2)cc1", "note": "(stereo unspecified)", "z-score": -0.11},
      {"smiles": "NC1=NC(c2ccc(Br)cc2)n2c(nc3ccccc32)N1", "note": "(stereo unspecified)", "z-score": -0.2},
      {"smiles": "Cc1ccc(C(=O)COC(=O)CCC(=O)Nc2ccccc2Cl)cc1[N+](=O)[O-]", "z-score": 0.194},
      {"smiles": "CCn1c(SCC(=O)Nc2nc(C)cs2)nnc1-c1cccnc1", "z-score": 0.652},
      {"smiles": "C=CCOC(=O)Nc1c(C(=O)OC)[nH]c2ccc(Cl)cc12", "z-score": -0.103}
    ]}
  ]
}
